# Results taken from publication PMC11995724, “Antibiotic target discovery by integrated phenotypic and activity-based profiling of electrophilic fragments” (Cell chemical biology, 2025).
# The campaign covered roughly 3,200 compounds. About 75 (2%) showed an effect of 50% or more. The list shows a part of the results.
# Test system: T1, S. aureus MSSA476
# T1 construct: MSSA476
# Design: species or system S. aureus MSSA476 (TSB) or V. cholerae SAD30 (LB); 384-well bacterial growth screen at 25 uM, OD600 relative to DMSO control
# Settings: relative growth, OD600, TSB; 25 µM; inhibitor
row,SMILES,% of control remaining [%]
1,"C=CC(=O)NCc1nc2ccccc2c(=O)n1C [3-J10, N-[(3-methyl-4-oxo-3,4-dihydroquinazolin-2-yl)methyl]prop-2-enamide]",133.391
2,"N#Cc1ccc(N2C(=O)C=CC2=O)cc1 [10-B09, 4-(2,5-dioxo-2,5-dihydro-1H-pyrrol-1-yl)benzonitrile]",133.438
3,"Cc1ccc(S(=O)(=O)NC2CN(C(=O)CCl)C2)cc1 [5-E07, N-[1-(2-chloroacetyl)azetidin-3-yl]-4-methylbenzene-1-sulfonamide]",90.7104
4,"COC(=O)Cc1ccc(C(=O)CCl)s1 [10-L12, methyl 2-[5-(2-chloroacetyl)thiophen-2-yl]acetate]",104.063
5,"Cc1cnc(C(C)N2CCN(C(=O)C(C)Cl)CC2)s1 (centres unmarked) [7-M03, 2-chloro-1-{4-[1-(5-methyl-1,3-thiazol-2-yl)ethyl]piperazin-1-yl}propan-1-one]",104.867
6,"CC(NC(=O)C(C#N)=Cc1ccc(-c2ccccc2)cc1)c1ccccc1 (centres unmarked) [8-J11, 3-{[1,1'-biphenyl]-4-yl}-2-cyano-N-(1-phenylethyl)prop-2-enamide]",121.826
7,"CNC(=O)C(C#N)=Cc1cc(C)n(-c2cccc3ccccc23)c1C [9-P16, 2-cyano-3-[2,5-dimethyl-1-(naphthalen-1-yl)-1H-pyrrol-3-yl]-N-methylprop-2-enamide]",106.667
8,"C=CC(=O)NCc1cn(C2CCCC2)nc1C [3-N21, N-[(1-cyclopentyl-3-methyl-1H-pyrazol-4-yl)methyl]prop-2-enamide]",99.9565
9,"COCCn1c(C)cc(C(=O)CCl)c1C [10-D13, 2-chloro-1-[1-(2-methoxyethyl)-2,5-dimethyl-1H-pyrrol-3-yl]ethan-1-one]",103.125
10,"COc1ccc(-c2n[nH]cc2C=C(C#N)C(=O)Nc2ccccc2)cc1 [8-A14, 2-cyano-3-[3-(4-methoxyphenyl)-1H-pyrazol-4-yl]-N-phenylprop-2-enamide]",86.971
11,"CC(Cl)C(=O)N1CC(=O)Nc2ccccc21 (centres unmarked) [6-E07, 4-(2-chloropropanoyl)-1,2,3,4-tetrahydroquinoxalin-2-one]",82.2927
12,"C=CC(=O)NCCC(=O)N1CC[S+]([O-])C(C)(C)CC1 (centres unmarked) [3-O17, N-[3-(7,7-dimethyl-1-oxo-1lambda4,4-thiazepan-4-yl)-3-oxopropyl]prop-2-enamide]",100.305
13,"Cc1ccc(C=C(C#N)C(=O)NC2CC2)s1 [9-K15, 2-cyano-N-cyclopropyl-3-(5-methylthiophen-2-yl)prop-2-enamide]",64.4195
14,"COCC(NC(=O)C(C)Cl)c1ccccn1 (centres unmarked) [6-B13, 2-chloro-N-[2-methoxy-1-(pyridin-2-yl)ethyl]propanamide]",95.6098
15,"N#CC(=Cc1ccco1)C(=O)NCCc1ccc(F)cc1F [9-B11, 2-cyano-N-[2-(2,4-difluorophenyl)ethyl]-3-(furan-2-yl)prop-2-enamide]",93.1835
16,"O=C(CCl)NCCc1cccc2ccccc12 [6-E14, 2-chloro-N-[2-(naphthalen-1-yl)ethyl]acetamide]",93.561
17,"CC(Cl)C(=O)Nc1ccc(Cl)c(C(F)(F)F)c1 (centres unmarked) [4-C12, 2-chloro-N-[4-chloro-3-(trifluoromethyl)phenyl]propanamide]",121.582
18,"C=CC(=O)N1CCC(n2cc(CO)nn2)C1 (centres unmarked) [2-E08, 1-{3-[4-(hydroxymethyl)-1H-1,2,3-triazol-1-yl]pyrrolidin-1-yl}prop-2-en-1-one]",118.712
19,"C=CC(=O)N(C)CC(=O)NCc1nc2cc(C)ccc2n1C [2-B14, N-({[(1,5-dimethyl-1H-1,3-benzodiazol-2-yl)methyl]carbamoyl}methyl)-N-methylprop-2-enamide]",148.303
20,"N#CC(=Cc1ccccc1)C(=O)NCc1ccc(F)cc1 [8-P10, 2-cyano-N-[(4-fluorophenyl)methyl]-3-phenylprop-2-enamide]",106.556
21,"C=CC(=O)N1CCC(n2cnc3ccccc3c2=O)C1 (centres unmarked) [3-C03, 3-[1-(prop-2-enoyl)pyrrolidin-3-yl]-3,4-dihydroquinazolin-4-one]",102.046
22,"CC(NC(=O)C(C#N)=Cc1ccco1)c1cccc(-n2cccn2)c1 (centres unmarked) [9-J04, 2-cyano-3-(furan-2-yl)-N-{1-[3-(1H-pyrazol-1-yl)phenyl]ethyl}prop-2-enamide]",97.9775
23,"N#CC(=Cc1c(F)cccc1F)C(=O)Nc1ccccc1Cl [9-I20, N-(2-chlorophenyl)-2-cyano-3-(2,6-difluorophenyl)prop-2-enamide]",89.8876
24,"CC(Cl)C(=O)N1CCC(n2nnc3c2CCCC3)CC1 (centres unmarked) [7-H17, 2-chloro-1-[4-(4,5,6,7-tetrahydro-1H-1,2,3-benzotriazol-1-yl)piperidin-1-yl]propan-1-one]",102.669
25,"C=CC(=O)N1CCOC(c2nc(C)cs2)C1 (centres unmarked) [3-A17, 1-[2-(4-methyl-1,3-thiazol-2-yl)morpholin-4-yl]prop-2-en-1-one]",115.629
26,"CC(Cl)C(=O)NC1CCCc2ccccc21 (centres unmarked) [5-M19, 2-chloro-N-(1,2,3,4-tetrahydronaphthalen-1-yl)propanamide]",94.3534
27,"CC1CC(C(=O)CCl)CO1 (centres unmarked) [10-M13, 2-chloro-1-(5-methyloxolan-3-yl)ethan-1-one]",147.5
28,"N#CC(=Cc1ccccc1)C(=O)Nc1ccc(N2CCCCC2)cc1 [8-E15, 2-cyano-3-phenyl-N-[4-(piperidin-1-yl)phenyl]prop-2-enamide]",111.203
29,"O=C(CCl)NCCC1=CCCCC1 [4-H05, 2-chloro-N-[2-(cyclohex-1-en-1-yl)ethyl]acetamide]",101.382
